# Measured values reported in the antibiotic and cytotoxicity screens of Wong et al. (2023).
# This is one part of the list.
# Tested on: HepG2
# Assay: cytotoxicity call (relative viability < 0.9)
# Conditions: 10 µM
row,Structure (SMILES),cytotoxicity call
1,Cn1c(=O)n2n(c1=O)[C@H](C1CC1)C=C1CN3[C@@H]([C@H](CCn4cc(-c5ccc(C(=O)NO)cc5)nn4)OC(=O)[C@@H]3Cc3ccccc3)[C@@H]12,inactive
2,Cn1c(=O)c2c(NCCO)ccnc2n(C)c1=O,inactive
3,C[C@H](CO)N1C[C@H](C)[C@@H](CN(C)S(=O)(=O)c2ccc(F)cc2)OCCCC[C@H](C)Oc2ccc(NC(=O)Nc3ccc(F)cc3)cc2C1=O,inactive
4,C[C@@H]1CN([C@@H](C)CO)C(=O)Cc2cc(NS(=O)(=O)c3ccccc3)ccc2O[C@@H]1CN(C)Cc1ccc(C(=O)O)cc1,inactive
5,Cc1ccc(S(=O)(=O)NC(=O)NN2CC3CCCC3C2)cc1 (stereo unspecified),inactive
6,C[C@@H]1CN([C@@H](C)CO)C(=O)c2cc(NC(=O)Nc3ccccc3)ccc2O[C@H]1CN(C)C(=O)Nc1ccc(C(F)(F)F)cc1,inactive
7,COc1ccc(S(=O)(=O)N(C)C[C@H]2OCCCC[C@H](C)Oc3ccc(NC(=O)C4CCCCC4)cc3C(=O)N([C@@H](C)CO)C[C@H]2C)cc1,inactive
8,C[C@@H]1CCCCO[C@H](CN(C)S(=O)(=O)c2cn(C)cn2)[C@@H](C)CN([C@@H](C)CO)C(=O)c2cc(NS(C)(=O)=O)ccc2O1,inactive
9,Cc1noc(C)c1NC(=O)Nc1ccc2c(c1)C(=O)N([C@@H](C)CO)C[C@@H](C)[C@@H](CN(C)Cc1ccc(C(=O)Nc3ccccc3N)cc1)O2,inactive
10,CCCNc1nc(=O)c(C)n[nH]1,inactive
11,Nc1nncn1C(=O)c1ccccc1F,inactive

# Tested on: S. aureus RN4220
# Assay: growth inhibition call (relative growth <= 0.2)
# Conditions: 50 µM
row,Structure (SMILES),growth inhibition call
1,Cc1noc(C)c1S(=O)(=O)Nc1cccc2c1O[C@@H](CN(C)CC1CC1)[C@@H](C)CN([C@H](C)CO)C2=O,inactive
2,C[C@@H]1CCCCO[C@@H](CN(C)C(=O)Nc2ccccc2)[C@@H](C)CN([C@H](C)CO)C(=O)c2cc(NC(=O)c3ccncc3)ccc2O1,inactive
3,COCC#Cc1ccc2c(c1)O[C@H](CN(C)S(=O)(=O)c1ccc(C)cc1)[C@@H](C)CN([C@@H](C)CO)S2(=O)=O,inactive
4,COc1ccccc1C#Cc1ccc2c(c1)O[C@@H](CN(C)Cc1ccncc1)[C@@H](C)CN([C@H](C)CO)S2(=O)=O,inactive
5,CCCCCCc1nc(-c2ccc(-c3ccc(Cl)c(Cl)c3)o2)cc2c1[Si](C(C)C)(C(C)C)O[C@H]2c1ccccc1,inactive
6,Cc1ccc(S(=O)(=O)Nc2ccc3c(c2)CC(=O)N([C@@H](C)CO)C[C@@H](C)[C@@H](CN(C)Cc2ccc(Oc4ccccc4)cc2)O3)cc1,inactive
7,COCC#Cc1ccc2c(c1)O[C@@H](CN(C)Cc1ccc(F)cc1)[C@@H](C)CN([C@@H](C)CO)S2(=O)=O,inactive
8,O=C(C[C@@H]1CC[C@H]2[C@@H](COC[C@@H](O)CN2S(=O)(=O)c2ccc(F)cc2)O1)NCCN1CCCCC1,inactive
9,CCCNC(=O)c1cc2c(c(-c3cccc(-c4cccc(OC)c4)c3)n1)[C@@H](CCO)N([S@](=O)C(C)(C)C)C2,inactive
10,C[C@H]1CN([C@@H](C)CO)C(=O)c2cc(NC(=O)CCN3CCOCC3)ccc2O[C@H]1CN(C)S(=O)(=O)c1ccc(Cl)cc1,inactive
11,C[C@@H]1CN([C@@H](C)CO)C(=O)c2ccccc2-c2ccccc2CO[C@@H]1CN(C)Cc1ccccc1C(F)(F)F,inactive
12,C[C@@H]1CN([C@H](C)CO)C(=O)c2cc(C#CC3CCCC3)cnc2O[C@@H]1CN(C)C(=O)Cc1ccccn1,inactive
13,C[C@H]1CN([C@@H](C)CO)S(=O)(=O)c2ccc(C#CC3CCCC3)cc2O[C@@H]1CN(C)C(=O)Cc1ccncc1,inactive
14,CCCNC(=O)N1C[C@@H](O)COC[C@@H]2O[C@H](CC(=O)N3CCN(C)CC3)CC[C@H]21,inactive
15,C[C@H](CO)N1C[C@H](C)[C@@H](CN(C)C(=O)Nc2ccc(N3CCCCC3)cc2)OCc2cn(nn2)CCCC1=O,inactive
16,C[C@H](CO)N1C[C@H](C)[C@@H](CN(C)S(C)(=O)=O)Oc2ccc(NC(=O)Cn3cnnn3)cc2CC1=O,inactive
17,CC(C)NC(=O)Nc1ccc2c(c1)C(=O)N([C@@H](C)CO)C[C@@H](C)[C@H](CN(C)Cc1ccc(Cl)c(Cl)c1)OCCCC[C@H](C)O2,inactive
18,CC(C)N1C(=O)CNC1=S,inactive
19,COc1ccc(C#Cc2cnc3c(c2)C(=O)N([C@H](C)CO)C[C@H](C)[C@H](CN(C)C(=O)NC(C)C)O3)cc1OC,inactive
20,CCn1nnc2c(SCC(N)=O)ncnc21,inactive
